Assay results: PubChem BioAssay AID485360 (National Center for Advancing Translational Sciences (NCATS), 2010)
The whole screen tested about 230,000 compounds, of which about 1,500 (0.65%) were called active. The shares of active, inactive and inconclusive entries below differ from those in the screen. Calls follow the shape of the dose curve; as a rule, active = well fitted inhibition curve with a large enough effect; inconclusive = small, poorly fitted or top-dose-only effect; inactive = no such curve, though single readings can be large or run the other way. Potencies beside an inconclusive call are fits to weak or partial responses and may not hold up.
% is scaled to controls: 0 for no effect and ±100 for the full control effect; potency is read from the fitted curve at half-maximal effect; tags tell the direction and shape of the fitted curve.
Also: nearly all actives have a fitted effect of over 60% in size.

The molecules below were run against Lethal(3)malignant brain tumor-like protein 1 (Homo sapiens) (UniProt Q9Y468) (assay: qHTS Assay for the Inhibitors of L3MBTL1). Settings: AlphaScreen L3MBTL1–H3K9me1 peptide binding; activity, negative = inhibition: at 57.1 µM (top of the series).
Sequence of UniProt Q9Y468 (Q9Y468 whole entry, looked up): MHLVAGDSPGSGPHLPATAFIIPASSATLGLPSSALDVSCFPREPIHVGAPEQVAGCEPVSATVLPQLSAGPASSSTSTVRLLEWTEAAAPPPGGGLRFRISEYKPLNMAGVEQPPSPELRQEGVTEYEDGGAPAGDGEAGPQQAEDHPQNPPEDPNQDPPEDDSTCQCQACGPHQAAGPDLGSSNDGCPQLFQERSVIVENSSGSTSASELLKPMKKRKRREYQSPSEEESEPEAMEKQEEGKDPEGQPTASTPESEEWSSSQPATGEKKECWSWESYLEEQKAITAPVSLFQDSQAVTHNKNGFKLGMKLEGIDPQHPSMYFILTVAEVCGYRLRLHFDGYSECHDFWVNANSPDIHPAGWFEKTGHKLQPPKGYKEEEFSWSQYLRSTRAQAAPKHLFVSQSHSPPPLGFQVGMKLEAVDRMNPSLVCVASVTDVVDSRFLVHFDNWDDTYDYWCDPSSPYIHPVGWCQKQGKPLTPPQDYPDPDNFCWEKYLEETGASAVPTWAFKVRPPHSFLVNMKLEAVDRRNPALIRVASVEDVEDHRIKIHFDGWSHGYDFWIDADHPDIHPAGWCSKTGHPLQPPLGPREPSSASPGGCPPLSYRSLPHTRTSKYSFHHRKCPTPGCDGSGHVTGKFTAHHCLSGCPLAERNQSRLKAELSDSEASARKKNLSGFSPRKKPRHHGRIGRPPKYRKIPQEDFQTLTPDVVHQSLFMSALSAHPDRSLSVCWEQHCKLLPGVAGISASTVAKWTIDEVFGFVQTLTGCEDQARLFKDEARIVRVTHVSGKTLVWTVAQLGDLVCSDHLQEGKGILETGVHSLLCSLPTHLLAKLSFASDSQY
Method in brief: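 First, the protein-peptide complex forms for 30 min at room temperature (L3MBTL1 50 nM, biotinylated H3K9me1 peptide 75 nM). Next, compounds are pin-transferred and incubated 30 min. Finally, AlphaScreen beads are added and read after 30 min.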
For `Cc1ccc(S(=O)(=O)c2c(N)n(/N=C/c3ccco3)c3nc4ccccc4nc23)cc1C`, the Potency was inconclusive: 39.8 µM [inhibitor, single point].
With `CC(C)CNC(=O)NC1(C(F)(F)F)Oc2ccccc2O1` the Potency was “inactive”.
For `Cc1cc(C)c2c(N)c3ccccc3nc2n1`, the Potency was “inactive”.
In the case of `CCOc1cc(N2CCOCC2)c(OCC)cc1NC(=O)c1ccc(NC(C)=O)cc1`, the Potency was “inactive”.
In the case of `CN1\C(=C/C=C/C=C/C=[N+](C)C)C(C)(C)c2ccccc21`, the Potency was inconclusive: 10 µM [inhibitor, partial curve].
For `COc1cccc(CNC(=O)CCCCCn2c(=S)[nH]c3ccc(N4CCOCC4)cc3c2=O)c1`, the Potency was “inactive”.
For `CN(C)CCSc1nc(-c2ccccc2)nc2c1CCCC2`, the Potency was inconclusive: 25.1 µM [inhibitor, single point].
With `CCC[C@@H]1C[C@@H](C(=O)N[C@@H](C2O[C@H](SC)[C@H](O)[C@@H](O)[C@H]2O)[C@H](C)Cl)N(C)C1` (stereo partly drawn) the Potency was inconclusive: 0.0891 µM [inhibitor, full curve, poor fit].
`CC1=NN(c2ccc(C(F)(F)F)cn2)C(=O)C1` was tested, and the Potency was inconclusive: 28.2 µM [inhibitor, single point].
In the case of `C=C1c2cccc(O)c2C(=O)C2C(=O)[C@]3(O)C(=O)C(C(N)=O)C(=O)[C@@H](N(C)C)[C@@H]3[C@@H](O)[C@H]12` (stereo partly drawn), the Potency was active: 0.891 µM.
In the case of `N[C@@H](C(=O)N[C@@H]1C(=O)N2C(C(=O)O)=C(Cl)CS[C@H]12)c1ccccc1`, the activity, negative = inhibition was inconclusive: -54.5% [inhibitor].
`COc1cccc(-n2c(SC3CCOC3=O)nc3ccccc3c2=O)c1` (stereo not drawn) was tested, and the Potency was inconclusive: 7.08 µM [inhibitor, single point].
With `Cc1cc(S(=O)(=O)N2CCCC(N3CCOCC3)C2)c(C)cc1Cl` (stereo not drawn) the Potency was “inactive”.
In the case of `COc1ccc(S(=O)(=O)C(C#N)c2nc3ccccc3nc2N2CCCC(C)C2)cc1` (stereo not drawn), the Potency was “inactive”.
With `O=C(O)c1ccc(N/N=C/c2cn(Cc3ccc(F)cc3)c3ccccc23)cc1` the Potency was “inactive”.
For `Cc1cccc(C)c1NC(=O)c1c(-c2ccccc2)noc1C`, the Potency was “inactive”.
With `CC(=O)N1CCN(c2ccc(NCc3ccc(Br)o3)cc2)CC1` the Potency was “inactive”.
`CC(C)NC[C@H](O)c1ccc(O)c(O)c1` was tested, and the Potency was “inactive”.
In the case of `Nc1c(N2CCOCC2)cc(Cl)c2nonc12`, the Potency was “inactive”.
`O=C(CCN1C(=O)/C(=C\c2cccs2)SC1=S)Nc1ccccn1` was tested, and the Potency was inconclusive: 0.398 µM [inhibitor, full curve, poor fit].
With `CN(C)c1ccc(Nc2nc(N)c3ccccc3n2)cc1` the Potency was inconclusive: 31.6 µM [inhibitor, partial curve].
`CSCCC(NS(=O)(=O)c1ccc(C)c(C(=O)O)c1)C(=O)O` (stereo not drawn) was tested, and the Potency was active: 8.91 µM.
In the case of `COc1cc(C(c2c(C)[nH][nH]c2=O)c2c(C)[nH][nH]c2=O)ccc1OC(=O)c1cccc([N+](=O)[O-])c1`, the Potency was “inactive”.
In the case of `CSc1ccc(NC(=O)CSc2nc3[nH]c(=O)cc(O)c3s2)cc1`, the Potency was inconclusive: 39.8 µM [inhibitor, single point].
For `Cc1cc(=O)[nH]c(SCCOc2ccc(OC(C)C)cc2)n1`, the Potency was inconclusive: 5.62 µM [inhibitor, single point].
`O=C(CSc1ccc2nnc(-c3ccc(F)cc3)n2n1)NCc1ccco1` was tested, and the Potency was inconclusive: 25.1 µM [inhibitor, partial curve].
`O=C(CN1C(=O)c2ccccc2S1(=O)=O)Nc1ncc(Cl)cc1Cl` was tested, and the Potency was inconclusive: 7.94 µM [inhibitor, single point].
`COc1cccc(-c2nnc(NC(=O)c3ccc4ncsc4c3)o2)c1` was tested, and the Potency was “inactive”.
In the case of `O=C(O/N=C\c1ccc(N2CCOCC2)c([N+](=O)[O-])c1)c1ccccc1Cl`, the Potency was inconclusive: 11.2 µM [inhibitor, partial curve].
`COC(=O)C1=C(C)N(CCc2ccccc2)C(=O)/C1=C\c1ccco1` was tested, and the Potency was inconclusive: 22.4 µM [inhibitor, partial curve].
For `CC(=O)Nc1ccc(NC(=O)Cn2nc([N+](=O)[O-])c(Br)c2C)cc1`, the Potency was “inactive”.
For `O=c1cc(O)c2c(=O)n(Cc3ccccc3)c3ccccc3c2o1`, the Potency was inconclusive: 0.631 µM [inhibitor, full curve, poor fit].
With `O=C(COC(=O)c1cc2c(s1)CCC2)Nc1ccc(F)cc1` the Potency was active: 14.1 µM.
`O=[N+]([O-])c1ccc(/C=N/n2cn[nH]c2=S)cc1` was tested, and the Potency was “inactive”.
In the case of `Nc1ccc(C(=O)Nc2nccs2)cc1`, the Potency was inconclusive: 0.282 µM [inhibitor, full curve, poor fit].
With `CN(C)C=NC1=NN(c2cccc(C(F)(F)F)c2)CC1` the Potency was “inactive”.
With `O=C(COc1ccccc1)Nc1cccc(-c2nc3ccccc3[nH]2)c1` the Potency was inconclusive: 39.8 µM [inhibitor, single point].
For `COc1ccc(C(=O)Nc2ccc(N3CCCCCC3)cc2)cc1S(=O)(=O)N1CCOCC1`, the Potency was inconclusive: 25.1 µM [inhibitor, single point].
In the case of `CCC(=O)c1ccc(OCC(=O)N2CCCC2)c(OC)c1`, the Potency was inconclusive: 31.6 µM [inhibitor, single point].
For `CC(=O)c1ccc(N2CCN(c3ccc(C(N)=O)cc3[N+](=O)[O-])CC2)cc1`, the Potency was “inactive”.
`Cc1cc(-c2ccccc2)c2c(=O)n(-c3ccccc3)[nH]c2n1` was tested, and the Potency was inconclusive: 31.6 µM [inhibitor, partial curve].
With `C#CCOCCOCCOCCNc1nc(N2CCN(C(=O)CCCCCCCCCCNC(=O)[C@H](CCCCN)n3cc(CCO)nn3)CC2)nc(N2CCN(C(=O)CCCCCCCCCCNC(=O)[C@H](CCCN=C(N)N)n3cc(C[C@@H](C)CC)nn3)CC2)n1` the Potency was “inactive”.
For `COc1ccc(-c2oc(=O)c3cc(OC)c(OC)cc3c2C#CC2(O)CCCCC2)cc1`, the Potency was “inactive”.
With `Cc1cc2nc(CCN(C(=S)NCC3CCCO3)C3CCCC3)[nH]c2cc1C` (stereo not drawn) the Potency was inconclusive: 31.6 µM [inhibitor, single point].
With `O=Cc1ccc(Oc2ccc(F)cc2)nc1` the Potency was inconclusive: 8.91 µM [inhibitor, partial curve, poor fit].
In the case of `Cc1ccc(C(=O)OCC(=O)c2ccc(CC(=O)N3CCOCC3)s2)cc1C`, the Potency was inconclusive: 25.1 µM [inhibitor, single point].
In the case of `CCN(CC)c1ccc(N)cc1`, the Potency was inconclusive: 35.5 µM [inhibitor, single point].
In the case of `CCOc1ccc2nc(/N=C/c3c(C)[nH]n(-c4ccc(C)cc4)c3=O)sc2c1`, the Potency was “inactive”.
`O=C(NCCN1CCCCCC1)C1CC(=O)N(CCc2ccccc2)C1` (stereo not drawn) was tested, and the Potency was inconclusive: 39.8 µM [inhibitor, single point].
With `O=C1c2ccccc2C(=O)N1CCN1CCc2ccccc21` the Potency was “inactive”.
With `CCS(=O)(=O)N1CCN(C(=O)CC(C)C)CC1` the Potency was inconclusive: 7.08 µM [inhibitor, single point].
In the case of `CCCCc1nc2ccc(S(=O)(=O)O)cc2[nH]1`, the Potency was “inactive”.
In the case of `O=C(Cn1cnc2ccccc2c1=O)Nc1ccc(N2CCOCC2)cc1`, the Potency was “inactive”.
With `Cc1nn(C(=O)c2ccoc2C)c(N)c1-c1ccccc1` the Potency was inconclusive: 0.708 µM [inhibitor, single point].
`CCN1C=C(Cc2cccs2)C2=C(C1)C(c1cccs1)C(C#N)=C(N)O2` (stereo not drawn) was tested, and the Potency was inconclusive: 31.6 µM [inhibitor, single point].
For `Cc1[nH]c2ccccc2c1-c1csc(NC(=O)CSCC(=O)O)n1`, the Potency was “inactive”.
In the case of `CC(/C=C1\SC(=S)N(NC(=O)c2ccc(O)cc2)C1=O)=C\c1ccccc1`, the Potency was inconclusive: 39.8 µM [inhibitor, single point].
`Cc1c(NS(=O)(=O)c2cc(C(=O)NCc3ccco3)cc(Cl)c2Cl)c(=O)n(-c2ccccc2)n1C` was tested, and the Potency was inconclusive: 39.8 µM [inhibitor, single point].
In the case of `Cc1cnc(C)c(N2CCN(Cc3cn(C)nc3-c3cccc(Cl)c3)CC2)n1`, the Potency was inconclusive: 4.47 µM [inhibitor, full curve, poor fit].
With `COc1ccc(N2CCC(CNC(=O)Nc3ccc(OC)cc3OC)C2)cc1` (stereo not drawn) the Potency was inconclusive: 28.2 µM [inhibitor, single point].
`CCOCCCNC(=O)C(c1ccc(OC)cc1)N(Cc1ccc2c(c1)OCO2)C(=O)c1cnccn1` (stereo not drawn) was tested, and the Potency was inconclusive: 7.08 µM [inhibitor, partial curve, poor fit].
With `O=C(NCC(c1ccco1)N1CCN(c2ccccc2F)CC1)OCc1ccccc1` (stereo not drawn) the Potency was inconclusive: 8.91 µM [inhibitor, single point].
`Cc1ccc(O)c(C(=O)/C=C/c2ccc3c(c2)OCCCO3)c1` was tested, and the Potency was inconclusive: 39.8 µM [inhibitor, single point].
With `COC(=O)c1sccc1NC(=S)Nc1ccccc1` the Potency was “inactive”.
With `CCN(C(=O)CN1c2ccccc2CC1C)c1c(N)n(Cc2ccccc2)c(=O)[nH]c1=O` (stereo not drawn) the Potency was “inactive”.
`CCCCn1c(NC(=O)c2ccccc2)nc2ccccc21` was tested, and the Potency was “inactive”.
For `Clc1ccccc1N1CCN(c2ncnc3nc[nH]c23)CC1`, the Potency was “inactive”.
`Cc1cc(C)c(C)c(N=Nc2nc3ccccc3n2C)c1C` was tested, and the Potency was inconclusive: 17.8 µM [inhibitor, partial curve].
For `CN(C)c1ccc(-c2nnn(CC(=O)Nc3ccccc3N3CCOCC3)n2)cc1`, the Potency was inconclusive: 39.8 µM [inhibitor, single point].
`Clc1ccc2nc(CN3CCCc4ccccc43)cn2c1` was tested, and the Potency was inconclusive: 22.4 µM [inhibitor, single point].
In the case of `N#Cc1c(N)sc(=S)c2c1CCCC2`, the Potency was “inactive”.
For `Cc1cc(C)cc(NC(=O)CSc2nnc(-c3ccccc3C)o2)c1`, the Potency was “inactive”.
For `O=C(COc1ccccc1)N1CCN(C(=O)c2cccs2)CC1`, the Potency was inconclusive: 5.62 µM [inhibitor, single point].
